In all, about 420,000 compounds went through this assay and about 64,000 (15%) were called active. The inconclusive results got no clear call from the source; some entries with a clear call stand among them for comparison. Calls follow the shape of the dose curve; as a rule, active = well fitted inhibition curve with a large enough effect; inconclusive = small, poorly fitted or top-dose-only effect; inactive = flat fitted curve, though single readings scatter. Potencies of inconclusive entries are left out as doubtful fits.
Test: qHTS for Inhibitors of human tyrosyl-DNA phosphodiesterase 1 (TDP1): qHTS in cells in absence of CPT; also: nearly all actives have a fitted effect of over 55% in size
Settings: DT40 Tdp1-/- hTDP1 cells, no CPT, ATP luminescence, 48 h; activity change, negative = growth inhibition: at 46.2 µM (top of the series) unless noted
Method in brief: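 Chicken DT40 Tdp1-/- cells stably complemented with human TDP1 were seeded at 400 cells/well with DMSO in place of 20 nM camptothecin. After compound pinning, cells grew at least 48 hr at 37 °C; viability read by CellTiter-Glo luminescence.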
% is scaled to controls: 0 for no effect and ±100 for the full control effect; potency is read from the fitted curve at half-maximal effect; tags tell the direction and shape of the fitted curve.

Structure (SMILES) | activity change, negative = growth inhibition | Potency
CCOc1ccc(CCNC(=O)COC(=O)Cn2cnc3c2c(=O)n(C)c(=O)n3C)cc1OCC | inactive: 9.1% | –
Clc1ccc(Oc2ncnc3oc(-c4ccccc4)cc23)cc1 | – | inconclusive [inhibitor, partial curve]
O=C1C(CO)C(CO)C(CO)C1CO (configuration not stated) | inactive: -1.45% | –
CCOC(=O)C1=CN(Cc2cccc(F)c2)S(=O)(=O)N(CC)C1c1ccccc1 (configuration not stated) | – | inconclusive [inhibitor, single point]
CCCCN(CCCC)CC(O)CN(c1cc([N+](=O)[O-])ccc1OC)S(=O)(=O)c1ccccc1 (configuration not stated) | – | active: 14.6 µM
NC(=S)N/N=C/c1cccc(Br)c1 | – | inconclusive [inhibitor, single point]
O=c1c2ccccc2ncn1-c1cccc(Br)c1 | inactive: -3.66% | –
Cc1nn(C)cc1C(=O)NNC(=S)Nc1ccccc1 | inactive: 3.49% | –
O=C(CNCCc1ccc(Cl)cc1)Nc1ccc(C(=O)N2CCCCC2)cc1 | – | inconclusive [inhibitor, single point]
CCOC(=O)CSc1nc(C)c(C(C)=O)cc1C(N)=O | inactive: -10.8% | –
O=C(CCSCCc1ccccn1)Nc1c(F)c(F)c(F)c(F)c1F | – | inconclusive [inhibitor, full curve, poor fit]
CN(C)C(=O)c1ccc(NC(=O)c2cncc(Br)c2)cc1 | – | inconclusive [inhibitor, partial curve]
O=C(COc1ccccc1)Nc1ccccc1C(=O)OCc1cc(=O)n2nc(C3CC3)sc2n1 | – | inconclusive [inhibitor, single point]
COc1ccccc1Cc1c(-c2ccccc2)nc2c(C)cc(Br)cn12 | – | active: 16.4 µM
Cc1ccc(CN2CC(C(=O)N(C)CC(=O)Nc3cccc(F)c3)CC2=O)cc1 (configuration not stated) | inactive: 6.86% | –
O=C(NCCC1CCCCN1S(=O)(=O)c1ccccc1)C(=O)Nc1ccc(F)cc1 (configuration not stated) | – | inconclusive [inhibitor, single point]
CC(Cc1ccccc1)=NNS(=O)(=O)c1ccc([N+](=O)[O-])cc1 | inconclusive: -15.7% [inhibitor] | –
CC(=O)c1ccc(NC(=S)NCCCN2CCOCC2)cc1 | inactive: 10.6% | –
CC(C)c1ccc2nc3sc(C(=O)N4CCc5ccccc5C4)c(N)c3cc2c1 | – | inconclusive [inhibitor, single point]
CCCCC/C=C\C/C=C\CCCCCCCCCC(=O)O | inactive: 6.04% [at 4.12 µM] | –
CCN(c1ccc(NC(=O)CCc2nc3sc4c(c3c(=O)[nH]2)CCCC4)cc1)C(C)C | – | active: 23.1 µM
CCOc1cc(C(=S)N2CCOCC2)ccc1OS(=O)(=O)c1ccccc1[N+](=O)[O-] | – | inconclusive [inhibitor, single point]

Reference: PubChem BioAssay AID686978 (National Center for Advancing Translational Sciences (NCATS), 2013)
